The experiment has as its target T1, rhFc-CD122 (human, UniProt P14784 27-240).
T1 chain: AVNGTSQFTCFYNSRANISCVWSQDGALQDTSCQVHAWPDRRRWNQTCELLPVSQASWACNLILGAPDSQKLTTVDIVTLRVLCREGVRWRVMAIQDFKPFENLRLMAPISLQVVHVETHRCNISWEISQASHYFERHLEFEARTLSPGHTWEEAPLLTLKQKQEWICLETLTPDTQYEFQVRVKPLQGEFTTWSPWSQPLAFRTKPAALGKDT
The experiment can be described thus: SPR.

The Kd is a measure of binding affinity in units of concentration. Higher therefore signals lower affinity.

B1: 329141 construct (IL2-L1-CH2-L2-IL-2Rα-LH masked cytokine receptor binding protein) (other)
chain: [about 150 residues cut from this listing]GGVPLSLYSGNGGPSVFLFPPKPKDTLMISRTPEVTCVVVDVSHEDPEVKFNWYVDGVEVHNAKTKPREEQYNSTYRVVSVLTVLHQDWLNGKEYKCKVSNKALPAPIEKTISKAKGQPGASASGGGMLSLELCDDDPPEIPHATFKAMAYKEGTMLNCECKRGFRRIKSGSLYMLCTGSSSHSSWDNQCQCTSSATRSTTKQVTPQPEEQKERKTTEMQSPMQPVDQASLPGHCREPPPWENEATERIYHFVVGQMVYYQCVQGYRALHRGPAESVCKMTHGKTRWTQPQLICTGEASGGGGHHHHHH
Molecule B1 displayed a Kd of 342 nM.

(Values after patent US20210221864A1 (published 2021).)
